Source: article PMC9911399, “Two distinct binding modes provide the RNA-binding protein RbFox with extraordinary sequence specificity”
Positions count from the first letter of the chain named. The list shows a part of the results.

T1: RBFOX1 RRM RbFoxmut (Fox-RRM*) (Homo sapiens, UniProt Q9NWB1 109-208, R118D;E147R;N151S;E152T)
T1 sequence: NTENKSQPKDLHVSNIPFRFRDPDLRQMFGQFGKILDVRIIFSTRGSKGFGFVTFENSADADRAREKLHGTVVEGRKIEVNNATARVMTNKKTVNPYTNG

B1: GUUCAUC (DNA:RNA)
RNA: GGGAGACCGGAAUUCAGAUUGUCCGUUCAUCUUAAAUCCCGUCGUAGCCACCA
DNA 1: CAATCTGAATTCCGGTCTCCC
DNA 2: TGGTGGCTACGACGGGATT
B2: ACACAUC (DNA:RNA)
RNA: B1 RNA with G25A, U26C, U27A
DNA 1: CAATCTGAATTCCGGTCTCCC
DNA 2: TGGTGGCTACGACGGGATT
B3: UAUGAAC (DNA:RNA)
RNA: B1 RNA with G25U, U26A, C28G, U30A
DNA 1: CAATCTGAATTCCGGTCTCCC
DNA 2: TGGTGGCTACGACGGGATT
B4: GACGCCG (DNA:RNA)
RNA: B1 RNA with U26A, U27C, C28G, A29C, U30C, C31G
DNA 1: CAATCTGAATTCCGGTCTCCC
DNA 2: TGGTGGCTACGACGGGATT
B5: CUUAGUA (DNA:RNA)
RNA: B1 RNA with G25C, C28A, A29G, C31A
DNA 1: CAATCTGAATTCCGGTCTCCC
DNA 2: TGGTGGCTACGACGGGATT
B6: ACUGCUA (DNA:RNA)
RNA: B1 RNA with G25A, U26C, C28G, A29C, C31A
DNA 1: CAATCTGAATTCCGGTCTCCC
DNA 2: TGGTGGCTACGACGGGATT
B7: AGUGUCU (DNA:RNA)
RNA: B1 RNA with G25A, U26G, C28G, A29U, U30C, C31U
DNA 1: CAATCTGAATTCCGGTCTCCC
DNA 2: TGGTGGCTACGACGGGATT
B8: CAUCCGU (DNA:RNA)
RNA: B1 RNA with G25C, U26A, A29C, U30G, C31U
DNA 1: CAATCTGAATTCCGGTCTCCC
DNA 2: TGGTGGCTACGACGGGATT
B9: AUCUUAG (DNA:RNA)
RNA: B1 RNA with G25A, U27C, C28U, A29U, U30A, C31G
DNA 1: CAATCTGAATTCCGGTCTCCC
DNA 2: TGGTGGCTACGACGGGATT
B10: GAAGUGA (DNA:RNA)
RNA: B1 RNA with U26A, U27A, C28G, A29U, U30G, C31A
DNA 1: CAATCTGAATTCCGGTCTCCC
DNA 2: TGGTGGCTACGACGGGATT
B11: CUUCGGG (DNA:RNA)
RNA: B1 RNA with G25C, A29G, U30G, C31G
DNA 1: CAATCTGAATTCCGGTCTCCC
DNA 2: TGGTGGCTACGACGGGATT
B12: GUUAGCA (DNA:RNA)
RNA: B1 RNA with C28A, A29G, U30C, C31A
DNA 1: CAATCTGAATTCCGGTCTCCC
DNA 2: TGGTGGCTACGACGGGATT
B13: CUCAACG (DNA:RNA)
RNA: B1 RNA with G25C, U27C, C28A, U30C, C31G
DNA 1: CAATCTGAATTCCGGTCTCCC
DNA 2: TGGTGGCTACGACGGGATT
B14: AUUCGCU (DNA:RNA)
RNA: B1 RNA with G25A, A29G, U30C, C31U
DNA 1: CAATCTGAATTCCGGTCTCCC
DNA 2: TGGTGGCTACGACGGGATT
B15: CUUAGGA (DNA:RNA)
RNA: B1 RNA with G25C, C28A, A29G, U30G, C31A
DNA 1: CAATCTGAATTCCGGTCTCCC
DNA 2: TGGTGGCTACGACGGGATT
B16: GUCCCAU (DNA:RNA)
RNA: B1 RNA with U27C, A29C, U30A, C31U
DNA 1: CAATCTGAATTCCGGTCTCCC
DNA 2: TGGTGGCTACGACGGGATT
B17: GUCCCCG (DNA:RNA)
RNA: B1 RNA with U27C, A29C, U30C, C31G
DNA 1: CAATCTGAATTCCGGTCTCCC
DNA 2: TGGTGGCTACGACGGGATT
B18: GGCGGAU (DNA:RNA)
RNA: B1 RNA with U26G, U27C, C28G, A29G, U30A, C31U
DNA 1: CAATCTGAATTCCGGTCTCCC
DNA 2: TGGTGGCTACGACGGGATT
B19: CUCUUUG (DNA:RNA)
RNA: B1 RNA with G25C, U27C, C28U, A29U, C31G
DNA 1: CAATCTGAATTCCGGTCTCCC
DNA 2: TGGTGGCTACGACGGGATT
B20: GCAUCAA (DNA:RNA)
RNA: B1 RNA with U26C, U27A, C28U, A29C, U30A, C31A
DNA 1: CAATCTGAATTCCGGTCTCCC
DNA 2: TGGTGGCTACGACGGGATT
B21: CUACAAA (DNA:RNA)
RNA: B1 RNA with G25C, U27A, U30A, C31A
DNA 1: CAATCTGAATTCCGGTCTCCC
DNA 2: TGGTGGCTACGACGGGATT
B22: UCCUUUA (DNA:RNA)
RNA: B1 RNA with G25U, U26C, U27C, C28U, A29U, C31A
DNA 1: CAATCTGAATTCCGGTCTCCC
DNA 2: TGGTGGCTACGACGGGATT
B23: CCUGGGC (DNA:RNA)
RNA: B1 RNA with G25C, U26C, C28G, A29G, U30G
DNA 1: CAATCTGAATTCCGGTCTCCC
DNA 2: TGGTGGCTACGACGGGATT
B24: AGACCGU (DNA:RNA)
RNA: B1 RNA with G25A, U26G, U27A, A29C, U30G, C31U
DNA 1: CAATCTGAATTCCGGTCTCCC
DNA 2: TGGTGGCTACGACGGGATT
B25: AGCCCGA (DNA:RNA)
RNA: B1 RNA with G25A, U26G, U27C, A29C, U30G, C31A
DNA 1: CAATCTGAATTCCGGTCTCCC
DNA 2: TGGTGGCTACGACGGGATT
B26: GGCGCAA (DNA:RNA)
RNA: B1 RNA with U26G, U27C, C28G, A29C, U30A, C31A
DNA 1: CAATCTGAATTCCGGTCTCCC
DNA 2: TGGTGGCTACGACGGGATT
B27: ACAGAGC (DNA:RNA)
RNA: B1 RNA with G25A, U26C, U27A, C28G, U30G
DNA 1: CAATCTGAATTCCGGTCTCCC
DNA 2: TGGTGGCTACGACGGGATT
B28: AGUUGUG (DNA:RNA)
RNA: B1 RNA with G25A, U26G, C28U, A29G, C31G
DNA 1: CAATCTGAATTCCGGTCTCCC
DNA 2: TGGTGGCTACGACGGGATT
B29: ACGUAAC (DNA:RNA)
RNA: B1 RNA with G25A, U26C, U27G, C28U, U30A
DNA 1: CAATCTGAATTCCGGTCTCCC
DNA 2: TGGTGGCTACGACGGGATT
B30: AGACCAG (DNA:RNA)
RNA: B1 RNA with G25A, U26G, U27A, A29C, U30A, C31G
DNA 1: CAATCTGAATTCCGGTCTCCC
DNA 2: TGGTGGCTACGACGGGATT
B31: UGAUGCG (DNA:RNA)
RNA: GGGAGACCGGAAUUCAGAUUGUCCUGAUGCGUUAAAUCCCGUCGUAGCCACCA
DNA 1: CAATCTGAATTCCGGTCTCCC
DNA 2: TGGTGGCTACGACGGGATT

These binders were tested against T1, RBFOX1 RRM RbFoxmut (Fox-RRM*) (assay: EMSA; HiTS-Eq, 1 nM pool, 10 min; buffer printed only for the single-RNA assays: 10 mM Tris pH 7.5, 150 mM NaCl, 3.4 mM EDTA, 0.001% NP-40, 30 C). Settings: tags: His6 N-terminal (pET28a); label: 5' 32P.
How it was run: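 These values rest on relative association constants, computed from read-count changes of each RNA species versus the control reaction and normalised to the cognate motif. Reads came from free RNA recovered by 8% native PAGE after purified RbFox RRM (wild type or mutant) at increasing concentrations was equilibrated for 10 min in 50 µL with 1 nM of a 5′-radiolabelled pool with 7 randomized nucleotides and DNA-annealed flanks.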

| Binder | binding signal |
| --- | --- |
| B1 | 0.0631 KA relative to UGCAUGU |
| B2 | 0.07 KA relative to UGCAUGU |
| B3 | 0.0597 KA relative to UGCAUGU |
| B4 | 0.0827 KA relative to UGCAUGU |
| B5 | 0.162 KA relative to UGCAUGU |
| B6 | 0.0993 KA relative to UGCAUGU |
| B7 | 0.137 KA relative to UGCAUGU |
| B8 | 0.103 KA relative to UGCAUGU |
| B9 | 0.153 KA relative to UGCAUGU |
| B10 | 0.0795 KA relative to UGCAUGU |
| B11 | 0.0971 KA relative to UGCAUGU |
| B12 | 0.18 KA relative to UGCAUGU |
| B13 | 0.107 KA relative to UGCAUGU |
| B14 | 0.132 KA relative to UGCAUGU |
| B15 | 0.069 KA relative to UGCAUGU |
| B16 | 0.0766 KA relative to UGCAUGU |

| Binder | binding signal |
| --- | --- |
| B17 | 0.0635 KA relative to UGCAUGU |
| B18 | 0.0987 KA relative to UGCAUGU |
| B19 | 0.125 KA relative to UGCAUGU |
| B20 | 0.323 KA relative to UGCAUGU |
| B21 | 0.044 KA relative to UGCAUGU |
| B22 | 0.0931 KA relative to UGCAUGU |
| B23 | 0.0947 KA relative to UGCAUGU |
| B24 | 0.0878 KA relative to UGCAUGU |
| B25 | 0.0896 KA relative to UGCAUGU |
| B26 | 0.0809 KA relative to UGCAUGU |
| B27 | 0.0994 KA relative to UGCAUGU |
| B28 | 0.175 KA relative to UGCAUGU |
| B29 | 0.113 KA relative to UGCAUGU |
| B30 | 0.103 KA relative to UGCAUGU |
| B31 | 0.141 KA relative to UGCAUGU |
